“And” between values parts separate entries of the source, which are not always exact repeats. Identical values can stand only once. The whole screen tested about 360,000 compounds, of which about 25,000 (6.9%) were called active. This list was built around the results that the source calls inconclusive (neither active nor inactive); the mix of calls is not that of the screen. Calls follow the shape of the dose curve; as a rule, active = well fitted inhibition curve with a large enough effect; inconclusive = small, poorly fitted or top-dose-only effect; inactive = flat fitted curve, though single readings scatter. A potency beside an inconclusive call is a rough fit, not a confirmed value.
biological target: Luciferin 4-monooxygenase (Photinus pyralis) (UniProt P08659); test: qHTS profiling assay for firefly luciferase inhibitor/activator using purifed enzyme and Km concentrations of substrates (counterscreen for miR-21 project); conditions: purified FLuc, luminescence inhibition; series mostly up to 57.5 µM; also: nearly all actives have a fitted effect of over 55% in size
Outline: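 Purified P. pyralis luciferase (10nM final) with 10uM D-luciferin and 10uM ATP (Km levels) in 50mM Tris acetate pH 7.5, 10mM Mg acetate, 0.01% Tween-20, 0.05% BSA; qHTS 6-point titration, ~60 µM downward; luminescence read.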
Potency is read from the fitted curve at half-maximal effect; tags tell the direction and shape of the fitted curve.

UniProt P08659, sequence (P08659 whole entry, looked up): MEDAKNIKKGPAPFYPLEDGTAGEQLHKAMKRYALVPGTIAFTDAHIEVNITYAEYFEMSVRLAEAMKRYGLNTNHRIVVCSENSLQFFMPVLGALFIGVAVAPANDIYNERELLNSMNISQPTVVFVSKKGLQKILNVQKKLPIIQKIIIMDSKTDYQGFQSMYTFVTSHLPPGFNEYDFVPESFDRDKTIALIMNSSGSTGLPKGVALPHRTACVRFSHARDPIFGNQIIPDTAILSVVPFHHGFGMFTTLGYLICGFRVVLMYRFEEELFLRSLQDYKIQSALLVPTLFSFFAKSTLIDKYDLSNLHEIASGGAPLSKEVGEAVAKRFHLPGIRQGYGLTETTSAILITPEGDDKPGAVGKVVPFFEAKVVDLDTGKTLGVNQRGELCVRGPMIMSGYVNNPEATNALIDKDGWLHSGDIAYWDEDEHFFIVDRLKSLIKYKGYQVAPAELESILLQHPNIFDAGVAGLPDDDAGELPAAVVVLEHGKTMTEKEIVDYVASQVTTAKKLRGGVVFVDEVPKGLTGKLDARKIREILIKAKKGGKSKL

Compound	Potency
CC(C)(C)NC(=O)c1cnn(-c2ccccc2)c1C1CCN(C(=O)OC(C)(C)C)CC1	inactive
O=S(=O)(Nc1cccc(-c2ccc(N3CCCCCC3)nn2)c1)c1ccccc1F	active: 5.36 µM and active: 19 µM
O=C(Cc1c[nH]c2ccccc12)N/N=C/c1cccc(F)c1	inactive
COc1ccc(C(=O)Nc2nnc(-c3ccc(F)cc3)s2)c(OC)c1	inconclusive: 1.9 µM [inhibitor, full curve]
COc1cc(C(=O)NCC(c2cccnc2)N2CCc3ccccc3C2)cc(OC)c1OC (centres undefined)	inactive
O=C(CCC(=O)N1CCN(c2ccc(O)cc2)CC1)c1cccs1	inactive
COc1ccc(-c2nc3c(Br)c(N)c(Br)cc3o2)cc1	active: 1.35 µM
CC(C)(C)c1ccc(OCC(=O)N2CCN(c3ncccn3)CC2)cc1	inconclusive: 26.9 µM [inhibitor, single point]
C/C(=N\NC(=S)Nc1ccc(C)cc1)c1cc2ccccc2o1	active: 12 µM
O=C(COC(=O)c1ccccc1)NC1CCCC1	active: 16.9 µM
COc1cccc2c1nc(C)c1cc(C)oc12	active: 21.3 µM
CCCCNC(=O)Cn1c(=O)cc(C)c2c(C)nn(-c3ccc(CC)cc3)c21	inactive
Cc1[nH]n(-c2ccccc2)c(=O)c1/C=N/n1c(C)nc2ccccc2c1=O	inconclusive: 7.57 µM [inhibitor, partial curve, poor fit]
Cc1oc(-c2ccccc2)nc1CSc1nnc(C)n2c1cc1sccc12	inactive
CCOCCCNC(=O)CCC(=O)NNc1nc2ccccc2c2nc(-c3ccccc3)nn12	inconclusive: 21.3 µM [inhibitor, partial curve, poor fit] and inconclusive: 26.9 µM [inhibitor, partial curve, poor fit]
CCc1c(C)nc2c(OC)cccc2c1Cl	inconclusive: 16.9 µM [inhibitor, partial curve]
Cc1nn(C)cc1C1C2=C(CC(C)(C)CC2=O)OC2=C1C(=O)CC(C)(C)C2	inconclusive: 8.49 µM [inhibitor, partial curve, poor fit]
Cc1ccc(CNC(=O)C(=O)c2cn(CC(=O)N3CCOCC3)c3ccccc23)cc1	inconclusive: 26.9 µM [inhibitor, single point]
NC(=O)NC(=O)Nc1ccccc1Cl	inconclusive: 30.1 µM [inhibitor, partial curve, poor fit]
FC(F)(F)c1cc(-c2ccco2)nc(NCCc2ccccc2)n1	inconclusive: 37.9 µM [inhibitor, partial curve, poor fit]
COc1ccc(C(=O)N2CCN(c3ncnc4c(-c5ccccc5)nsc34)CC2)cc1	inactive
CCOC(=O)c1cnc2c(C)cccc2c1NCCc1ccc(OC)c(OC)c1	inactive
CC1(C)CCSC(/C=C/c2ccccc2)=N1	active: 13.5 µM
Cc1ccc(O)c(NC(=O)c2noc3c2CCCCC3)c1	active: 3.38 µM and active: 4.78 µM
O=C(Nc1ccc2c(c1)OCO2)c1n[nH]c(=O)c2ccccc12	inconclusive: 2.69 µM [inhibitor, full curve]

Compound	Potency
Cc1ccc(C)c(/C=C(\C(=O)O)c2ccc(S(=O)(=O)N3CCCCC3)s2)c1	inconclusive: 37.9 µM [inhibitor, single point]
O=C(CSc1nnc(NC(=O)c2c(F)cccc2F)s1)NCc1ccco1	inactive
Cc1c(C(=O)O)cccc1-n1c(C)cc(/C=C(/C#N)C(=O)NCc2ccccc2)c1C	inconclusive: 26.9 µM [inhibitor, single point]
CCOc1ccc(-n2nnnc2-c2nc3ccccc3s2)cc1	active: 2.13 µM
O=C(O)c1ccc(-n2cc(-c3cc4ccccc4oc3=O)[nH]c2=S)cc1	inconclusive: 21.3 µM [inhibitor, partial curve]
Cc1ccc(-c2nnc(NC(=O)c3ccc4c(c3)OCCO4)o2)c(C)c1	inconclusive: 7.57 µM [inhibitor, partial curve, poor fit]
COC(=O)c1sc(-c2ccc(Cl)cc2)cc1NC(=O)COCC(=O)O	inconclusive: 7.57 µM [inhibitor, partial curve]
O=C(O)c1cccc(Nc2nc(Nc3ccccc3)nc(N3CCCC3)n2)c1	inconclusive: 26.9 µM [inhibitor, single point]
C[C@H](NC(=O)c1ccccc1Cl)C(=O)OCCOc1ccc(Cl)cc1	inconclusive: 19 µM [inhibitor, partial curve, poor fit]
O=c1cc2nc(-c3cccs3)nc(SCCOc3ccc(Cl)cc3)n2[nH]1	inconclusive: 21.3 µM [inhibitor, single point]
Cc1ccc(NC(=O)C2(C)Cc3ccccc3C(=O)O2)cc1 (centres undefined)	inactive
O=C(/C=C/c1ccco1)NC(=S)Nc1cccc(-c2nc3ccccc3o2)c1	inconclusive: 16.9 µM [inhibitor, partial curve]
COc1cc(CNC2CCCCCCC2)c(Br)cc1OCCO	inactive
CC(=O)c1ccc(NC(=S)NNC(=O)c2ccccc2[N+](=O)[O-])cc1	inconclusive: 37.9 µM [inhibitor, single point]
CN(C)CCN=c1cc(-c2ccccc2)oc2ccc(Cl)cc12	active: 6.01 µM
CCOc1ccc(NC(=O)COC(=O)CNC(=O)c2ccc(-c3ccccc3)cc2)cc1	inconclusive: 8.49 µM [inhibitor, partial curve]
CCCc1nc(SCC(=O)c2ccccc2)c2c(=O)n(C)c(=O)n(C)c2n1	inactive
Nc1c(Cl)ncnc1N/N=C/c1ccncc1	inactive
CN(C)CCCNc1ncnc2c1cnn2-c1ccccc1	inconclusive: 16.9 µM [inhibitor, partial curve]
O=C(NC(=O)N1CCN(c2ccc([N+](=O)[O-])cn2)CC1)c1c(Cl)cccc1Cl	inactive
C=C(C)c1cccc(C(C)(C)NC(=O)Nc2ccc(C)cn2)c1	inconclusive: 23.9 µM [inhibitor, partial curve, poor fit]
COc1ccc(S(=O)(=O)n2nc(C)c(S(=O)(=O)N3CCCCCC3)c2C)cc1OC	inactive
COc1ccc(-c2cc(C(=O)OCC(=O)Nc3ccc4c(c3)OCO4)c3ccccc3n2)cc1	inconclusive: 10.7 µM [inhibitor, partial curve]
COc1cccc(NC(=O)c2sc(Cl)nc2C)c1	inconclusive: 26.9 µM [inhibitor, partial curve, poor fit]
CCOC(=O)c1c(C)oc2ncnc(NCCCN3CCN(c4cc(C)ccc4C)CC3)c12	inactive

Compound	Potency
COc1ccc(NC(=O)Cc2ccccc2)cc1	inconclusive: 21.3 µM [inhibitor, partial curve]
CCCOc1ccc(C(=O)N(Cc2cccs2)c2ccc(C)cc2)cc1	inactive
CCOC(=O)c1ccc(NC(=O)C2CCN(C(=O)N3CC(C)Oc4ccc(C)cc43)CC2)cc1 (centres undefined)	inactive
COc1ccccc1CNC(=O)Nc1cccs1	inconclusive: 21.3 µM [inhibitor, single point]
COc1cc(Cl)c(C)cc1Nc1nc2ccccc2nc1NS(=O)(=O)c1ccccc1	inconclusive: 3.79 µM [inhibitor, full curve]
S=C(NCCN1CCOCC1)Nc1ccc(Cl)cc1Cl	inactive
Cc1cccc(C(=O)Nc2ccc(-c3nc4cc(C(C)C)ccc4o3)cc2)c1	inconclusive: 10.7 µM [inhibitor, partial curve, poor fit]
Cc1csc(=O)n1CCC(=O)OCC(=O)Nc1ccc(F)c(F)c1F	inactive
O=[N+]([O-])c1ccccc1NCc1ccccc1Cl	inactive
Cc1ccc(-c2n[nH]c(=S)n2/N=C/c2c(C)[nH]n(-c3ccccc3)c2=O)cc1	active: 12 µM
Cc1ccc(NC(=O)Cc2noc3ccccc23)cc1	active: 21.3 µM
CCc1nnc2c(Nc3cc(OC)c(Cl)cc3OC)nc3ccccc3n12	inactive
COc1ccc(OCc2ccc(C(=O)NN)cc2)cc1	inconclusive: 23.9 µM [inhibitor, single point]
CC(CNC(=O)Cn1ccc2cc(S(=O)(=O)N3CCCC3)ccc21)c1ccccc1 (centres undefined)	inactive
CCOc1ccc(OCC)c(-c2c(=O)n(OCc3ccc(C(C)(C)C)cc3)c3ccccc3[n+]2[O-])c1	active: 8.49 µM
Cc1ccc(NC(=O)c2ccccc2NS(=O)(=O)c2ccc(F)cc2)cc1S(=O)(=O)N1CCCCC1	inconclusive: 37.9 µM [inhibitor, partial curve, poor fit]
COc1ccccc1N1CCN(/N=C/C=C\c2ccccc2[N+](=O)[O-])CC1	inconclusive: 37.9 µM [inhibitor, partial curve, poor fit]
CN(C(=O)C1CCOC1)c1nnc(-c2ccccn2)s1 (centres undefined)	active: 15.1 µM
COc1ccc2nc(SCC(=O)N(C)C3CCCCC3)[nH]c2c1	inconclusive: 21.3 µM [inhibitor, single point]
COc1ccc(Br)cc1C(=O)Nc1cccc(C)c1	inconclusive: 4.78 µM [inhibitor, full curve]
CC(C)(C)C1CCC(=NOC(=O)c2ccc(F)cc2)CC1 (centres undefined)	active: 19 µM
COc1ccc(NC(=O)c2cccc(-c3ccc(O)cc3)c2)cn1	inconclusive: 26.9 µM [inhibitor, partial curve]
CCSc1nnc2c3cc(CC)ccc3n(C)c2n1	inconclusive: 12 µM [inhibitor, partial curve]
CC(=O)Oc1ccc(/C=C/c2nc3ccccc3c(=O)o2)cc1	active: 0.426 µM

From PubChem BioAssay AID588342 (National Center for Advancing Translational Sciences (NCATS), 2011)
